Data as given in a collection of fitness landscapes (doi:10.1126/science.1257360).
This is one part of the list.

B1: PhoQ; a variant is named by its letters at X, in order, P23837 (parent)
chain: MKKLLRLFFPLSLRVRFLLATAAVVLVLSLAYGMVALIGYSVSFDKTTFRLLRGESNLFYTLAKWENNKLHVELPENIDKQSPTMTLIYDENGQLLWAQRDVPWLMKMIQPDWLKSNGFHEIEADVNDTSLLLSGDHSIQQQLQEVREDDDDAEMTHSVAVNVYPATSRMPKLTIVVVDTIPVELKSSYMVWSWFIYVLSANLLLVIPLLWVAAWWSLRPIEALAKEVRELEEHNRELLNPATTRELTSLVRNLNRLLKSERERYDKYRTTLTDLTHSLKTPLXXLQXXLRSLRSEKMSVSDAEPVMLEQISRISQQIGYYLHRASMRGGTLLSRELHPVAPLLDNLTSALNKVYQRKGVNISLDISPEISFVGEQNDFVEVMGNVLDNACKYCLEFVEISARQTDEHLYIVVEDDGPGIPLSKREVIFDRGQRVDTLRPGQGVGLAVAREITEQYEGKIVAGESMLGGARMEVIFGRQHSAPKDE

Variants of: B1
Test: enrichment ratio after two sorts for PhoP signalling (ratio (wild type AVST 3.29)); higher = more functional
Details: with PhoP (E. coli)

Variant	enrichment ratio
PGDV	≤ 0.25
VEEA	≤ 0.25
YPIL	≤ 0.25
HYHG	≤ 0.25
IVPV	≤ 0.25
RFWT	≤ 0.25
LHYP	≤ 0.25
SFGS	≤ 0.25
AANK	≤ 0.25
DDGV	≤ 0.25
KRTV	≤ 0.25
MNVA	≤ 0.25
TMSD	6.3
EDVY	≤ 0.25
HPPW	≤ 0.25
VNSA	≤ 0.25
PYES	≤ 0.25
ACSN	4.45
VAKC	≤ 0.25
KMNR	≤ 0.25
YPTN	≤ 0.25
RHEC	≤ 0.25
KERS	≤ 0.25
DDPE	≤ 0.25
YTRV	≤ 0.25
TEVQ	0.253

Variant	enrichment ratio
VCRW	≤ 0.25
EMPQ	≤ 0.25
MFKV	≤ 0.25
EDLN	≤ 0.25
HSTC	≤ 0.25
EDRH	≤ 0.25
IHGY	≤ 0.25
ADAH	≤ 0.25
VFGN	≤ 0.25
HHFP	≤ 0.25
WFFS	≤ 0.25
RCET	≤ 0.25
LGPN	≤ 0.25
VTPL	≤ 0.25
HRCF	≤ 0.25
QIIV	≤ 0.25
DLMA	≤ 0.25
YICW	≤ 0.25
IQNW	≤ 0.25
SHYW	≤ 0.25
RFAH	≤ 0.25
QKYW	≤ 0.25
SLWD	≤ 0.25
PDRM	≤ 0.25
KYMV	≤ 0.25
YPAI	≤ 0.25

Variant	enrichment ratio
IGNP	≤ 0.25
PNTS	≤ 0.25
MWWL	≤ 0.25
ESWV	≤ 0.25
HFQK	≤ 0.25
FRMT	≤ 0.25
RRYP	≤ 0.25
QMFF	≤ 0.25
QGHM	≤ 0.25
EMPF	≤ 0.25
NIWM	≤ 0.25
PIWS	≤ 0.25
MVVG	≤ 0.25
YDSL	≤ 0.25
WCFD	≤ 0.25
FACV	≤ 0.25
DTIS	≤ 0.25
MIRM	≤ 0.25
QLHM	≤ 0.25
VYDI	≤ 0.25
KFHR	≤ 0.25
NANL	≤ 0.25
DTSD	≤ 0.25
RKVM	≤ 0.25
QCMV	≤ 0.25
SEFH	4.4

Variant	enrichment ratio
VSGF	≤ 0.25
LWTT	≤ 0.25
IWGA	≤ 0.25
HTRM	≤ 0.25
FNWG	≤ 0.25
ADCD	≤ 0.25
TFHF	≤ 0.25
MYVP	≤ 0.25
NFAS	≤ 0.25
RGYY	≤ 0.25
SKGR	≤ 0.25
AVSL	7.58
NKLL	≤ 0.25
RPGC	≤ 0.25
PCPA	≤ 0.25
KICI	≤ 0.25
NRTM	≤ 0.25
THQC	13.1
TGWN	≤ 0.25
YSIA	≤ 0.25
KCDY	≤ 0.25
LCFG	≤ 0.25
VMYN	≤ 0.25
NPSN	≤ 0.25
GPMT	≤ 0.25
PGWL	≤ 0.25

Variant	enrichment ratio
HHII	≤ 0.25
YSNW	≤ 0.25
LVAH	≤ 0.25
PLQV	≤ 0.25
PFQD	≤ 0.25
WLWI	≤ 0.25
FYMV	≤ 0.25
HAIH	≤ 0.25
NYVY	≤ 0.25
MCPN	≤ 0.25
VDRH	≤ 0.25
EHQI	≤ 0.25
LPIP	≤ 0.25
IAEY	≤ 0.25
TRPM	≤ 0.25
IWRC	≤ 0.25
APRK	≤ 0.25
HLHY	≤ 0.25
GITP	≤ 0.25
YGYY	≤ 0.25
EPHR	≤ 0.25
RRFC	≤ 0.25
GMKP	≤ 0.25
FCQG	≤ 0.25
SGSE	15.4
NMCF	≤ 0.25

Variant	enrichment ratio
GYDI	≤ 0.25
YTSM	1.02
DQVI	≤ 0.25
EFQP	≤ 0.25
NGQD	≤ 0.25
RCFA	≤ 0.25
YCSF	≤ 0.25
VYEI	≤ 0.25
GDML	5.42
PQPL	≤ 0.25
KGCV	≤ 0.25
PYLP	≤ 0.25
NVVG	≤ 0.25
FGVI	2.59
PMSQ	≤ 0.25
KQIV	≤ 0.25
NCLL	2.83
QACQ	≤ 0.25
ATNP	≤ 0.25
EWFF	≤ 0.25
VNNA	≤ 0.25
LGGY	≤ 0.25
QHIV	≤ 0.25
